The source gives no read counts; variants with many changes may rest on few reads.
B1: LINE1-full (parent)
chain: UACGUAGGUGGUUUUCCCCUGAUAGUGCUAAGGGGGCCUGGAAGUUUGGACUGGGCAGAGCUCAACACAGCGUGGCAAAGUGGCUGUGGCUAGACUGCCUCUCUGGAUUCCUCGUCACUCAGCAGGGCAUCUCUGAGAGAAAUGCC

Variants of: B1
Assay: self-cleavage, relative activity (ratio to wild type); higher = more cleavage; in vitro, sequencing; the parent is a self-cleaving ribozyme

Row | Variant | self-cleavage
1 | U87C A124U A138G | 0.51
2 | C38U U47A G54U A77G A94G U108C A121G A142G | 0.09
3 | U13A U47C A78G A121G | 2.3
4 | U12C U39A A129C | 1.23
5 | U12G U26C U81C A129U | 2.3
6 | U45C U62A A69G U87A | 0
7 | U29A A31G G58U A69U C113U U119C | 0.01
8 | U14C U39C U62A | 0.07
9 | U23C U132C A136G | 2.3
10 | U62C U87A U104C | 0
11 | U13C U52C U62C U108C | 0.46
12 | A94G A107G G114U | 0.11
13 | A6G U85A U102C A129G | 0.59
14 | C3U A24G U45C A65U U96G U119A | 0.27
15 | A59U C84G C101U | 0.09
16 | U5A U47A U109A | 0.59
17 | A6U A77G A136G | 1.63
18 | C38U U45G U47C | 1.44
19 | U13A A129G A141G | 1.15
20 | A57U A117G A142G | 0.14
21 | U13C A42U U130C | 0
22 | U9C A67G U130C | 0.56
23 | U13C U26G U47C A69G | 0
24 | U13C U39A U62A | 0.13

Row | Variant | self-cleavage
25 | G40A U73A U96A | 0.01
26 | A22G U39C U102C U132A U143C | 2.16
27 | G41A A67G A77G A138G | 0.64
28 | U5A U46C A65G | 0
29 | U23C U47G A78G U85C | 0.77
30 | A59G A121C U132A | 0
31 | U20G A43G A138G | 0.66
32 | G32A U47C U62C A79G | 0.06
33 | U9A A22G A30G C51U A57U | 0.42
34 | A69G U102A U112G G127A | 0
35 | U45C A65U A107U U112C A124G | 0
36 | A65U U73A U108C U143G | 0.22
37 | U112C U115A A138G | 2.1
38 | U13C U46C U73A U115C | 1.64
39 | A43G U130A A138G | 1.53
40 | A64G A69G A77G | 0.77
41 | U26C G60A A77G | 0.07
42 | U13C A78G U108A U112C | 1.5
43 | U9G U12C A142G | 1.23
44 | A31U U45C A117G U132A A141G | 1.44
45 | A43U A141U A142G | 1.26
46 | U23C A78G A142G | 1.08
47 | G11A G32U G48A | 1.41
48 | U13C A57U U104G A121G G135A | 0

Row | Variant | self-cleavage
49 | U52A A67U A77C A78G A136G | 0.14
50 | U62C G80A U85C A121U | 0.03
51 | U96A A129U U130C A142G | 0.17
52 | A6G U46C U100A A124C | 1.97
53 | U52A A64G U115C C128U | 0.17
54 | A50G C101U A138G | 1.29
55 | U9A U14C U20C U39C | 0.29
56 | U29A A94G A129U | 0.1
57 | U9C A78G U96C A107U G139A | 0
58 | U12G A22G A78U A92G A124G | 0
59 | G4U A42G A92U U112C | 2.36
60 | U13C A107G U112A | 1.47
61 | A94G C113U A138G | 0.22
62 | A64U U96C C128G | 0.03
63 | A59U U104A A140G | 0.09
64 | U9C U14C U29C U109C | 0
65 | A24G A67U U119C | 0.26
66 | U5C U26A U47A U62A | 0.23
67 | U9C A67G A117G | 0
68 | C56G C68U U143A | 0.03
69 | U62C A69U U81C | 0.04
70 | A50G U62C U73A U100C | 0
71 | G8A A42G U81A | 2.94
72 | A78G U104C U108C A124U C128U | 2.87

Row | Variant | self-cleavage
73 | U12C U13C A67U U85A G126U A142U | 0.1
74 | U9C A69U A77G U130C | 0.12
75 | G35A U46G U100C A117G U130C | 2.51
76 | U13C U15C U29A U39A U52A A121C G122U | 1.27
77 | U9A U108C A117G U134C U143A | 0
78 | U45C G93A C113G U134C A141G | 0.04
79 | A67G A69G A140G | 0
80 | C3U U9C C37A U87C | 0.37
81 | A65G U87A U108A | 0
82 | A42C U102C U143C | 1.53
83 | U45A U46A U96C | 0.12
84 | U15A U100A U130C A142G | 0.71
85 | U96C U130A U143C | 0.16
86 | A6G U100C A117U A129G | 2.45
87 | U45C U100C A129G A140U | 0.42
88 | U81A U109A A124U | 2.11
89 | U9C G35A U115C U130A | 1.1
90 | A77G A78G A142G | 2.3
91 | U15C C61U U87A A117U | 0.03
92 | A2U A57G G125U U132C | 0.96
93 | U5A A42U A50G A124G A141U | 0.76
94 | C19U G44U A107G | 0
95 | U45C A59G A107U U132C | 0
96 | U52A U87C A141G | 0.28

Row | Variant | self-cleavage
97 | G35U A59G U87C | 0
98 | C37A U62C U102A | 0.03
99 | G10C A57G U100A A136C | 0.49
100 | U26C A78G U85C | 0.11
101 | G7A U26A G105A A142G | 1.12
102 | A67U A77G G80A U81C U87C | 0.14
103 | U1C U39A A107G | 1.77
104 | U14C U104A A140G | 1.1
105 | G7U A65G G125U | 0.09
106 | U26G G83A A141G | 1.43
107 | U14A U15C U26C U87A | 0.32
108 | A6G A78U U115A | 1.67
109 | C101A U108C G126A | 2.17
110 | U46C U96C U143C | 0.11
111 | A42G U102C U104C | 0
112 | U14C U73A A124G | 1.13
113 | G7U U12C U81A | 0.6
114 | A2G U96G A138G | 0
115 | G35U A43G A59G U73A C146A | 1.84
116 | A42G A107U A140G | 1.48
117 | G10A A24U U39C | 0.88
118 | A6G U23C U96C U134C | 0.71
119 | U20A U45G G60A G135U | 0.1
120 | U62C A77G U119C A138U U143C | 0

Row | Variant | self-cleavage
121 | U12C A24G A59U | 0.43
122 | A117U G127C A138U | 1.46
123 | U9C A30G U73A A124U | 1.19
124 | A57G U62C A129U A138U | 0.1
125 | U12C U13C U26A | 0.96
126 | C38U A78G A142G | 1.61
127 | U15C A94U U104C U115C U132A | 0
128 | U5C G44A A57U U62C U96C | 0
129 | U14C U47A U87C | 0.27
130 | U13C G41A U102C | 1.13
131 | U20G U46A A129G G144A | 0.75
132 | A24G U47C U81A U134A | 2.59
133 | G4C U20A A59G U130C U132A | 0
134 | A42G A43G A57G A79U | 1.67
135 | U39C A43G A140G | 0.28
136 | U39A U81C G88A | 0.09
137 | C61A A65G U73A U100A | 0.04
138 | A2G U108C U132A A136G | 1.87
139 | U9C U23C G33C | 0.71
140 | U47C U52C G54U U108C | 1.48
141 | A77G C84U A142G | 0.16
142 | U26C A31U U46C A79U | 2.55
143 | A50U U87C A117U | 0.13
144 | A2C U14A U102C A121U | 0.66

Row | Variant | self-cleavage
145 | G35A U87C A142G C146U | 0.1
146 | C3U U13C A43G | 0.99
147 | U1C U23C A59G | 0.07
148 | U14C A57G A117U | 0.8
149 | U14C U39C A121G | 2.04
150 | U20A C56A A65U A121G A141G | 0.05
151 | C19U A121G A140G A142U | 0.7
152 | U81C C103U U115C | 1.15
153 | U39C G48A U108G | 0.57
154 | A22G A79G A142G | 1.07
155 | G4A U15C U115C | 0.27
156 | U26G A30G U39A U115C | 0.92
157 | A22U U96C U134A | 0.04
158 | A43G C76U U109A U130A | 2.42
159 | U14C U26A C37A A78G U96C | 0.06
160 | G32A U47C A67U U91C A140G | 0
161 | A43G U46C U85A G139U | 0.37
162 | U29C A77G U81C C98U | 1.32
163 | G93C U102C A129G A142G | 0.12
164 | A59G G70A U109C U143C | 0.01
165 | A22G U102C U130A | 2.14
166 | U14G A22G A77U | 1.11
167 | U23C A24G A30G | 0
